# Experimental data: paper PMC11363325, “A Novel Prodrug Strategy Based on Reversibly Degradable Guanidine Imides for High Oral Bioavailability and Prolonged Pharmacokinetics of Broad-Spectrum Anti-influenza Agents” (ACS Central Science, 2024)
# Key:
# in vitro = in vitro ADME; details: PAMPA
# Method: To assess this hypothesis, we conducted the parallel artificial membrane permeability assay (PAMPA) for simulating passive transcellular permeation.[41]
# Supplemental Experimental Procedures
# In vitro Parallel Artificial Membrane Permeability Assay (PAMPA) […]
# evaluated using Parallel Artificial Membrane Permeability Assay Kit (PAMPA-096). Each prodrug and the supplied permeability controls were dissolved in DMSO at the concentration of 10 mM. Then 25 μL of each prodrug solution was mixed with 475 μL of 50 mM sodium phosphate buffer (pH 6.5) to be used as the test solution. GOC/HPMCP and OSC-GCDI/HPCMP particles are dissolved in 50 mM sodium phosphate buffer (5% DMSO, pH 6.5) to achieve a final concentration of 200 µM. In the acceptor plate, 300 μL of 50 mM sodium phosphate buffer (pH 7.4) was added. Subsequently, before adding 200 μL of each test solution to the donor plate, 5 μL of 4% lecithin in dodecane was directly applied to the well membrane of the donor plate. Donor plate was carefully placed into acceptor plate and incubate at r.t. for 16 – 24 h. Donor plate was removed and each solution was collected and filtered by a PVDF filter (0.20 μm pore size). The total prodrug concentration in each plate was determined by HPLC analysis.
# In the case of OSC-GCDI(P), partial degradation occurred due to the instability of OSC-GCDI(P) in the buffer. Therefore, the collected solution was further incubated in a 1 M KOH solution for complete hydrolysis. Then, the concentration of GOC was quantified instead.
# [1] = Stability of OSC-GCDIs in phosphate buffers; format: physicochemical; details: sodium phosphate buffer
# [2] = Stability of OSC-GCDIs and GOC release in BALB/c serum; format: in vitro ADME; details: mouse, 200 μM prodrug, 37 °C
# Method: (§1) Stability of OSC-GCDIs in serum
# Stability of the GCDI prodrugs were examined by incubating prodrugs in human and BALB/c serum at 37 °C and 200 μM final concentration. Briefly, each prodrug was dissolved in DMSO to be 20 mM concentration, then 10 μL of each prodrug solution was mixed with 990 μL of serum. At different time intervals, 100 μL of the samples were taken and mixed with 100 μL of MeCN. Samples were centrifuged at 14,000 rpm for 10 min at 4 °C and the supernatant was immediately frozen (−80 °C). After thawing and shaking, the samples were filtered using a polytetrafluoroethylene (PTFE) filter (0.20 μm pore size) […]
# Release profiles of GOC from the OSC -GCDI prodrugs conjugated to human serum albumin OSC-GCDIs were dissolved in Dulbecco ’s Phosphate-Buffered Saline (DPBS) containing HSA (20 mg/mL) to be concentration of 1 mM, then the mixture was shaken for 10 min at 37 °C. Unbound OSC-GCDIs were removed by washing twice with DPBS using Vivaspin 500 ultrafiltration units (10 kDa cutoff).
# Following centrifugation, the samples were redissolved in 1 mL DPBS. Before incubation at 37 °C, 50 µL sample was taken and mixed with 50 µL of 1 M KOH in m ethanol solution to completely hydrolyze the conjugates and determine the initial drug concentration bound to HSA. […] Then, the concentration of the released GOC was quantified by HPLC. […]
# physchem [3] = format: physicochemical
# [4] = Stability of OSC-GCDIs in human serum; format: in vitro ADME; details: 200 μM prodrug, 37 °C
# Method: as §1
# Stability of the GCDI prodrugs were examined by incubating prodrugs in human and BALB/c serum at 37 °C and 200 μM final concentration. Briefly, each prodrug was dissolved in DMSO to be 20 mM concentration, then 10 μL of each prodrug solution was mixed with 990 μL of serum. At different time intervals, 100 μL of the samples were taken and mixed with 100 μL of MeCN. Samples were centrifuged at 14,000 rpm for 10 min at 4 °C and the supernatant was immediately frozen (−80 °C). After thawing
# physchem [5] = format: physicochemical; details: pH 7.4
# [6] = pH 2, phosphate buffer pH 2.0, 37 °C
# [7] = pH 6.5, phosphate buffer pH 6.5, 37 °C
# [8] = pH 7.4, phosphate buffer pH 7.4, 37 °C
# [9] = pH 8, phosphate buffer pH 8.0, 37 °C
Compound,Papp at 500 μM (in vitro),"half-life at 100 μM [1, 6]","half-life at 100 μM [1, 7]","half-life at 100 μM [1, 8]","half-life at 100 μM [1, 9]",half-life at 200 μM [2],logP (physchem [3]),half-life at 200 μM [4],logD (physchem [5]),increase of lipophilicity of GOC via the GCDI modification (based on P) (physchem [3])
CCC(CC)O[C@@H]1C=C(C(=O)O)C[C@H](N=C(N2C(=O)C3CCC(C)CC3C2=O)N2C(=O)C3CCC(C)CC3C2=O)[C@H]1NC(C)=O (stereo partly shown) [OSC-GCDI(CM)],3.07 ×10⁻⁶ cm/s,> 1440 min,693 min,99 min,3.92 min,13.3 min,1.62,31.2 min,0.98,
CCC(CC)O[C@@H]1C=C(C(=O)O)C[C@H](N=C(N2C(=O)[C@H]3CC=CC[C@H]3C2=O)N2C(=O)[C@H]3CC=CC[C@H]3C2=O)[C@H]1NC(C)=O [OSC-GCDI(Ce)],1.45 ×10⁻⁶ cm/s,> 1440 min,1160 min,105 min,54.2 min,35.7 min,1.1,53.3 min,0.5,
CCC(CC)O[C@@H]1C=C(C(=O)O)C[C@H](N=C(N2C(=O)CC(C)C2=O)N2C(=O)CC(C)C2=O)[C@H]1NC(C)=O (stereo partly shown) [OSC-GCDI(M)],0.16 ×10⁻⁶ cm/s,,,,,,0.43,,-0.51,
CCC(CC)O[C@@H]1C=C(C(=O)O)C[C@H](N=C(N2C(=O)CCC2=O)N2C(=O)CCC2=O)[C@H]1NC(C)=O [OSC-GCDI(S)],,> 1440 min,,,,,-0.38,,-1.34,8.8 fold
